Experimental data as given in PubChem BioAssay AID2675 (National Center for Advancing Translational Sciences (NCATS), 2010).
The whole screen tested about 280,000 compounds, of which about 100 (0.036%) were called active. The inconclusive results got no clear call from the source; some entries with a clear call stand among them for comparison. Calls come from the whole dose curve; as a rule, active = well fitted inhibition curve with a large enough effect in the signal ratio, with a control signal flat (not every such curve was filed as active); inconclusive = small, poorly fitted or top-dose-only effect, or effect the other way, or a change in a side signal; inactive = no such curve, though single readings can be large or run the other way; the % refers to the signal ratio. Where the call is inconclusive, the potency comes from a doubtful curve fit. “Side channel” marks fits to a control or component signal instead of the main read-out.

target: Muscleblind-like protein 1 (Homo sapiens) (UniProt Q9NR56); experiment: qHTS Assay for Inhibitors of MBNL1-poly(CUG) RNA binding; conditions: TR-FRET MBNL1-His/biotin-(CUG)12 binding, 665/545 ratio; activity change, negative = inhibition: at 57.5 µM (top of the series)
UniProt Q9NR56, sequence (Q9NR56 whole entry, looked up): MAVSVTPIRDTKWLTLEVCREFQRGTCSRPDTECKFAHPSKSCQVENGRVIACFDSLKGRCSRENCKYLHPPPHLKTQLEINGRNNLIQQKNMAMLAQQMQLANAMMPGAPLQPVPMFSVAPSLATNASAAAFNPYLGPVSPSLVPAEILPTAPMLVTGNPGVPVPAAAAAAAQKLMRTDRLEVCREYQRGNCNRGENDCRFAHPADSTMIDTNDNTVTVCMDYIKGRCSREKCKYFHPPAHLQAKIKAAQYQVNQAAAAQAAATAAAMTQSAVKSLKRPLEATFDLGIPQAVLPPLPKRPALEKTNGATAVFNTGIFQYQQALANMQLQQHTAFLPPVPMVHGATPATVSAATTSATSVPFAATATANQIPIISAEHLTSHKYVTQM
In short: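 Inhibition of protein-RNA binding appears as loss of TR-FRET between terbium anti-His antibody on MBNL1-His and streptavidin-XL665 on biotin-(CUG)12. Activity is normalized to buffer-only and uninhibited-complex controls.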
% is set by controls: 0 for no effect and ±100 for the full control effect; potency is the fitted concentration of half-maximal effect; tags give direction and shape of the fitted curve or compound fluorescence and quenching.

| Structure (SMILES) | Potency | activity change, negative = inhibition |
| --- | --- | --- |
| CC1=C(C(=O)OCc2ccccc2)C(c2ccc([N+](=O)[O-])cc2)NC(=O)N1 (stereo not drawn) | inconclusive: 22.4 µM [quencher, side channel, single point] | – |
| COc1ccc(CN2CCN(Cc3ccc4ccccc4c3)CC2)cc1OC | – | inactive: -0.27% |
| CC1CCN(C(=O)Cn2nnc(-c3ccc([N+](=O)[O-])cc3)n2)CC1 | inconclusive: 3.16 µM [quencher, side channel, full curve] | – |
| O=C(NCC(c1cccs1)N1CCOCC1)c1ccccc1NS(=O)(=O)c1cc([N+](=O)[O-])ccc1Cl (stereo not drawn) | inconclusive: 28.2 µM [quencher, partial curve] | – |
| O=C1c2ccccc2C(=O)N1CN(C(=O)COc1ccccc1)c1ccc(F)cc1 | inconclusive: 20 µM [quencher, side channel, single point] | – |
| C=C(C(=O)c1ccccc1)C(C)C(=C)C(=O)c1ccccc1 | – | inactive: -1.75% |
| CC(=O)N1CCOc2ccc(S(=O)(=O)Nc3cccc(C)n3)cc21 | – | inactive: 4.82% |
| O=C1c2ccccc2C(=O)C1c1ccc2ccccc2n1 | inconclusive: 0.891 µM [quencher, side channel, full curve] | – |
| O=[N+]([O-])c1ccc2c(c1)nnn2-c1ccccc1 | inconclusive: 3.16 µM [quencher, full curve] | – |
| O=C1CN(/N=C/c2ccc([N+](=O)[O-])o2)C(=O)N1 | inconclusive: 3.98 µM [quencher, side channel, full curve] | – |
| COc1ccc(NS(=O)(=O)c2ccc(N/N=C(\C)c3ccncc3)c([N+](=O)[O-])c2)cc1 | inconclusive: 7.08 µM [quencher, side channel, single point] | – |
| CCOc1cc(N2CCOCC2)c(OCC)cc1NC(=O)c1ccc(-n2ccnc2)c([N+](=O)[O-])c1 | inconclusive: 11.2 µM [quencher, side channel, partial curve] | – |
| O=C(CSc1ccsc1[N+](=O)[O-])NC1CCCC1 | inconclusive: 7.08 µM [quencher, side channel, partial curve] | – |
| O=C(NCCCn1ccnc1)c1cc2nc(-c3ccc(Br)cc3)cc(C(F)(F)F)n2n1 | inconclusive: 14.1 µM [quencher, side channel, partial curve] | – |
| CS(=O)(=O)c1ccc(C(=O)OCC(=O)NC(=O)C2CCCCC2)cc1[N+](=O)[O-] | inconclusive: 28.2 µM [quencher, partial curve] | – |
| Cc1ccc2nc3c(cc2c1)c(NS(=O)(=O)c1ccccc1)nn3CC(C)C | inconclusive: 0.141 µM [quencher, side channel, full curve, poor fit] | – |
| NC(N)=NC(=O)c1nc(Cl)c(N2CCCCCC2)nc1N | inconclusive: 12.6 µM [quencher, side channel, partial curve] | – |
| COc1ccc(N=Cc2sc(O)c3ccccc23)cc1 | inconclusive: 39.8 µM [quencher, single point] | – |
| Cc1csc(C(=O)O)c1NC(=O)c1cccc([N+](=O)[O-])c1 | inconclusive: 39.8 µM [quencher, side channel, single point] | – |
| O=C(O)CCCN1C(=O)/C(=C\c2ccco2)SC1=S | inconclusive: 12.6 µM [quencher, side channel, partial curve] | – |

| Structure (SMILES) | Potency | activity change, negative = inhibition |
| --- | --- | --- |
| COC(=O)N/N=C/c1ccc(-c2ccc(C)c(Cl)c2)o1 | inconclusive: 12.6 µM [quencher, side channel, partial curve] | – |
| O=[N+]([O-])c1ccc(Sc2nccn2Cc2ccccc2)c([N+](=O)[O-])c1 | inconclusive: 12.6 µM [quencher, side channel, partial curve] | – |
| O=C(CCN1C(=O)S/C(=C\c2cccs2)C1=O)Nc1nccs1 | inconclusive: 31.6 µM [quencher, side channel, single point] | – |
| O=C(Cc1ccc(S(=O)(=O)N2CCOCC2)s1)Nc1ccc2c(c1)CCC2 | – | inactive: -2.54% |
| Fc1ccccc1/C=N/Nc1nc(-c2ccccn2)nc2ccccc12 | – | inactive: -0.63% |
| Cc1ccc(-c2cc3nc(-c4ccccc4)cc(N4CCOCC4)n3n2)cc1 | inconclusive: 28.2 µM [fluorescent, side channel, partial curve, poor fit] | – |
| Cc1ccc(C(=O)c2oc3ccc(Cl)cc3c2NC(=O)CN2CCN(C)CC2)cc1 | inconclusive: 15.8 µM [quencher, partial curve] | – |
| CC(C)(C)NC(=O)c1ccc2nsnc2c1 | inconclusive: 11.2 µM [quencher, side channel, partial curve] | – |
| Cc1nn(-c2ccccc2)c(C)c1/C=N/N1CCN(c2ccccc2)CC1 | inconclusive: 39.8 µM [quencher, side channel, single point] | – |
| Cc1ccccc1CNC(=O)CN(c1cccc([N+](=O)[O-])c1)S(C)(=O)=O | inconclusive: 25.1 µM [quencher, single point] | – |
| COC(=O)CSc1nnc(NC(=O)c2ccc3c(c2)OCO3)s1 | – | inactive: -8.4% |
| COc1ccc(N2CCN(C(=O)CCS(=O)(=O)c3cccc4nsnc34)CC2)cc1 | inconclusive: 5.01 µM [quencher, side channel, partial curve] | – |
| NS(=O)(=O)c1ccc(N=Nc2c(O)ccc3ccccc23)cc1 | inconclusive: 10 µM [quencher, side channel, partial curve] | – |
| O=C(CN1CCOCC1)NCc1cc([N+](=O)[O-])ccc1O | – | inactive: 23.9% |
| Cc1ccc(-c2nn(-c3ccccc3)cc2/C=C/C(=O)OCC(=O)NC2CC2)o1 | – | inactive: 21.7% |
| COc1ccc2cc(C#N)c(N3CCN(Cc4nnnn4CCC(C)C)CC3)nc2c1 | inconclusive: 39.8 µM [quencher, side channel, single point] | – |
| CC1CCCC(NC(=O)c2ccc(CNc3c(N4CCCC4)c(=O)c3=O)cc2)C1C (stereo not drawn) | inconclusive: 0.708 µM [quencher, side channel, full curve, poor fit] | – |
| Cc1ccc(-n2nc(C)c3c2OC(N)=C(C#N)C3c2ccoc2)cc1 (stereo not drawn) | inconclusive: 39.8 µM [quencher, side channel, partial curve, poor fit] | – |
| CCOc1ccc(C(=O)OCC(=O)NCc2ccco2)cc1OCC | – | inactive: -7.83% |
| Cc1ccc(NC(=O)CSc2nnc(NC(=O)c3ccc(S(=O)(=O)N4CCOCC4)cc3)s2)cc1 | – | inactive: -9.05% |

| Structure (SMILES) | Potency | activity change, negative = inhibition |
| --- | --- | --- |
| Cc1ccc(C(=O)NCC(=O)OCC(=O)Nc2cc(C)c(C)cc2[N+](=O)[O-])cc1 | inconclusive: 17.8 µM [quencher, side channel, partial curve] | – |
| CCOC(=O)c1nn(-c2ccccc2C)c(=O)c2c(N)scc12 | inconclusive: 28.2 µM [quencher, side channel, single point] | – |
| Cc1ccc(NS(=O)(=O)c2ccc(-c3ccc(=O)[nH]n3)o2)cc1Cl | inconclusive: 39.8 µM [quencher, side channel, single point] | – |
| COc1ccc(CCNc2nc(Cl)nc(NC(C)(C)CO)n2)cc1OC | – | inactive: -8.57% |
| c1cnc(N2CCN(c3ncnc4c3oc3ccccc34)CC2)nc1 | inconclusive: 28.2 µM [fluorescent, side channel, single point] | – |
| CC1CCCN(S(=O)(=O)c2ccc(CN3C(=O)c4cccnc4C3=O)cc2)C1 (stereo not drawn) | inconclusive: 39.8 µM [quencher, side channel, single point] | – |
| CC(C)(C)c1nc(Sc2ccc([N+](=O)[O-])cn2)n[nH]1 | inconclusive: 11.2 µM [quencher, side channel, partial curve] | – |
| CN1CCc2c(sc(NC(=O)c3cc4cc([N+](=O)[O-])ccc4s3)c2C(N)=O)C1 | inconclusive: 14.1 µM [quencher, side channel, partial curve] | – |
| COc1ccc2nc(COC(=O)c3ccco3)c(C(C)=O)[n+]([O-])c2c1 | inconclusive: 10 µM [quencher, side channel, partial curve] | – |
| O=[N+]([O-])c1c(Nc2ccc(Br)cc2)ccc2nonc12 | inconclusive: 1.26 µM [quencher, full curve] | – |
| O=[N+]([O-])c1ccc2c(c1)ncn2-c1ccccc1 | inconclusive: 3.98 µM [quencher, side channel, partial curve] | – |
| NS(=O)(=O)c1ccc(CCNC(=O)c2ccc(Cl)s2)cc1 | – | inactive: -0.46% |
| COC(=O)c1ccccc1NC(=S)NC(=O)c1ccc(C)cc1 | inconclusive: 2 µM [fluorescent, side channel, partial curve] | – |
| N#CCCn1cc(/C=C2\NC(=S)N(c3ccccc3)C2=O)c(-c2ccc(-c3ccccc3)cc2)n1 | – | inactive: -3.41% |
| C#CCOCCOCCOCCNc1nc(N2CCN(C(=O)[C@H](CCCCN)n3cc([C@@H](N)C(C)CC)nn3)CC2)nc(N2CCN(C(=O)[C@H](CCCCN)n3cc([C@@H](N)CC(C)C)nn3)CC2)n1 (stereo partly drawn) | inconclusive: 79.4 µM [inhibitor, single point] | – |
| COC(=O)c1cc(C(=O)Nc2ccc(S(N)(=O)=O)cc2)cc([N+](=O)[O-])c1 | inconclusive: 10 µM [quencher, side channel, partial curve] | – |
| C#CCOCCOCCOCCNc1nc(N2CCN(C(=O)[C@H](Cc3ccc(O)cc3)n3cc(CCO)nn3)CC2)nc(N2CCN(C(=O)[C@H](Cc3ccc(O)cc3)n3cc(CCO)nn3)CC2)n1 | – | inactive: -23.3% |
| Cc1cc(=O)n(C)c(=O)n1CCCCOc1ccc([N+](=O)[O-])cc1 | inconclusive: 25.1 µM [quencher, side channel, partial curve] | – |
